# Assay results published in the supplement of paper PMC4166925.
# ± gives the standard deviation of the averaged measurements. In all, about 33,000 sequences were measured (“E-score (dimensionless, -0.5 to 0.5)”: median about -0.049, highest 2% from about 0.37 on). Some of the results follow.
# Tested on: T1, PmTbr T-box DNA-binding domain (GST fusion)
# T1 sequence: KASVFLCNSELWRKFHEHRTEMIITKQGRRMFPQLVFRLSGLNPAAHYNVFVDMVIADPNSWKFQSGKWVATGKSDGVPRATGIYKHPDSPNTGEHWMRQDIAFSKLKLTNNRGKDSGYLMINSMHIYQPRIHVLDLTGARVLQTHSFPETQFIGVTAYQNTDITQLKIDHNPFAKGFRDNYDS
# Experiment: PBM E-score of 8-mer (E-score (dimensionless, -0.5 to 0.5)); Tbr is Tbrain of the sea star Patiria miniata (Pm) or the sea urchin Strongylocentrotus purpuratus (Sp); higher = stronger binding preference; most listed sequences are background and not binding sites
# Settings: the construct has about 5 more residues each side
# Outline: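 Universal Agilent oligonucleotide arrays, made double-stranded by primer extension, were incubated with 200 nM GST-fused Tbr T-box DNA-binding domain in PBS (pH 7.5). The protein was expressed in BL21 E. coli at 20 °C and purified by glutathione affinity chromatography. After scanning and quantification, the Universal PBM Analysis Suite assigned an enrichment E-score to each ungapped 8-mer, averaged over duplicate arrays.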
row,Sequence,PBM E-score of 8-mer
1,CGAAGACA,0.217 ± 0.0079
2,AGGCACTG,-0.187 ± 0.04
3,CCTGCAAG,-0.00101 ± 0.0029
4,CCACTGGC,0.162 ± 0.015
5,GCAAATTA,-0.0357 ± 0.0071
6,AACGCGCT,0.228 ± 0.015
7,AAGTTGCC,0.185 ± 0.0098
8,ATGGCCCG,-0.119 ± 0.027
9,AAGGCTCA,-0.202 ± 0.062
10,AGGGGTCA,-0.103 ± 0.048
11,CATTCGTA,-0.0434 ± 0.094
12,TACTCTAA,-0.1712 ± 0.00056
13,ACATCATG,-0.08081 ± 0.00078
14,GCTGACAC,0.398 ± 0.013
15,CAGGCGAA,-0.101 ± 0.048
16,AGCGGGGG,-0.072 ± 0.0086
17,AATAGTAA,-0.3255 ± 0.0021
18,ATGTTGGC,0.0657 ± 0.011
19,AAGTGACC,0.185 ± 0.041
20,CGAAGGCA,0.0921 ± 0.055
21,CTCTTGGC,-0.00769 ± 0.04
22,CGCGTCAC,0.294 ± 0.018
23,CCTTTGAC,-0.055 ± 0.073
24,CCAACTTA,-0.0514 ± 0.045
25,GAAGCTGC,0.156 ± 0.04

row,Sequence,PBM E-score of 8-mer
1,ATTTCAGG,0.0227 ± 0.019
2,GCCATTGA,-0.0667 ± 0.06
3,AAGACTAA,-0.0794 ± 0.0078
4,AATGTGAG,0.206 ± 0.041
5,GTTTAAAA,-0.219 ± 0.036
6,ATGTCACA,0.375 ± 0.013
7,TGATGGAA,0.116 ± 0.052
8,AGAATGCG,0.107 ± 0.031
9,AGCAGCCG,-0.0704 ± 0.04
10,ATCTCGCA,0.317 ± 0.017
11,TCAGCCAA,-0.125 ± 0.052
12,CGACTGCC,0.0131 ± 0.019
13,ATTAAACG,-0.0973 ± 0.063
14,GACCTTCA,-0.0991 ± 0.0084
15,ACAGCTCG,0.174 ± 0.04
16,CTAGTAAA,-0.159 ± 0.08
17,ACAGGCGA,0.199 ± 0.062
18,CTGGCTTC,-0.171 ± 0.062
19,ACGAAAAC,0.0807 ± 0.018
20,CTATCGTC,-0.0403 ± 0.021
21,ATCCCAAC,-0.171 ± 0.1
22,CAAAACTG,0.142 ± 0.074
23,AAAGTCGT,0.0432 ± 0.056
24,AAGCGGCT,-0.13 ± 0.072
25,AAGGACGT,-0.0609 ± 0.036

row,Sequence,PBM E-score of 8-mer
1,TATGGGGA,-0.156 ± 0.065
2,ACATGCCG,-0.0613 ± 0.045
3,ATCATAGA,-0.219 ± 0.029
4,TAGCGCTA,0.325 ± 0.016
5,ATCGGTAC,-0.231 ± 0.006
6,AATCGAGC,-0.0356 ± 0.036
7,CTGACGGA,0.0968 ± 0.011
8,ACACCAAG,0.35 ± 0.005
9,CCAAGGGA,0.0414 ± 0.029
10,AACTTCTG,0.0659 ± 0.019
11,CCGCGTAC,-0.0889 ± 0.065
12,ACCGACGC,0.0942 ± 0.0072
13,CCTTCACA,0.395 ± 0.014
14,CACGGCGA,0.0573 ± 0.037
15,ACTACTCC,-0.212 ± 0.046
16,GATGTATA,-0.0616 ± 0.063
17,TCCTGGAA,-0.252 ± 0.046
18,CCCACACC,0.43 ± 0.019
19,GGTGTTCA,0.324 ± 0.0065
20,AGGTGACC,0.172 ± 0.052
21,AGCAGCAT,-0.126 ± 0.0032
22,CGAGCTGA,0.0975 ± 0.039
23,ACTTTTGC,0.111 ± 0.018
24,GTACCTAC,-0.272 ± 0.061
25,ACCTGTTA,0.338 ± 0.007

row,Sequence,PBM E-score of 8-mer
1,CTCACCGA,0.00965 ± 0.039
2,AGACTAGC,-0.0927 ± 0.069
3,CTAGCGTA,0.0249 ± 0.015
4,AAGTTGCT,0.184 ± 0.0078
5,CGCACTGA,0.0701 ± 0.012
6,ACAGGACA,0.124 ± 0.026
7,ACCCGCCG,-0.0199 ± 0.075
8,GCTAAGGA,-0.08306 ± 0.00035
9,CGACAGCG,0.0991 ± 0.029
10,TACGAATA,-0.232 ± 0.098
11,GGACACTA,-0.00856 ± 0.0064
12,AGTATCGA,0.0288 ± 0.027
13,ACACCCAA,0.368 ± 0.035
14,AGGCATTG,-0.162 ± 0.068
15,CAGTGGGG,-0.103 ± 0.035
16,GAGGAAAC,-0.0461 ± 0.075
17,ACCAGGCC,-0.1037 ± 0.00028
18,TAAATCGA,-0.142 ± 0.0037
19,CCCGCTAA,0.279 ± 0.0095
20,AACAGATA,0.0778 ± 0.067
21,ACCTATAA,0.177 ± 0.018
22,ATCGAGTC,0.0243 ± 0.001
23,CTGCTGTC,0.0602 ± 0.021
24,GACTTACA,0.142 ± 0.0076
25,CACTAGTA,0.215 ± 0.033

row,Sequence,PBM E-score of 8-mer
1,GCGGTGCC,0.0932 ± 0.011
2,GATGCCTA,-0.266 ± 0.048
3,GATGCCAC,0.182 ± 0.072
4,AGTTTCGC,0.261 ± 0.051
5,ACCTTAAC,0.0595 ± 0.0064
6,GGTGTATA,0.159 ± 0.024
7,AACCGTCC,-0.225 ± 0.0078
8,ATTAAGAG,-0.239 ± 0.14
9,ACCAGCCC,-0.239 ± 0.047
10,ATCCGACA,0.196 ± 0.028
11,CACCACAC,0.367 ± 0.018
12,CGTGACAG,0.27 ± 0.015
13,CCGAAGCA,0.0424 ± 0.051
14,CAACATTG,0.155 ± 0.054
15,AGCGCGGG,0.0685 ± 0.027
16,CATGTAGA,-0.259 ± 0.061
17,GCTGGATA,-0.236 ± 0.029
18,ATCTGCAC,-0.008 ± 0.0075
19,GACTTTCC,0.078 ± 0.021
20,AGACGATG,-0.249 ± 0.026
21,CGCGGTGC,0.0712 ± 0.026
22,AGGGGAGG,-0.223 ± 0.07
23,ATCCACAT,0.0364 ± 0.013
24,AAACAGTG,-0.0598 ± 0.022
25,CAACTTCG,0.118 ± 0.017

row,Sequence,PBM E-score of 8-mer
1,AGCGTCCA,-0.302 ± 0.039
2,AATATTTG,0.0885 ± 0.074
3,CTTCCTGA,-0.188 ± 0.079
4,CGATTGAC,0.0922 ± 0.053
5,ATACGGGA,-0.232 ± 0.0065
6,ACCCGACA,0.266 ± 0.011
7,CCTATATA,0.175 ± 0.035
8,CAAGCTAA,-0.149 ± 0.029
9,ACGCCAGA,0.0369 ± 0.0034
10,AGACTCCG,-0.194 ± 0.011
11,CATATCAG,-0.15 ± 0.12
12,GATTGCGA,0.273 ± 0.036
13,CGGTTGAC,0.21 ± 0.018
14,AGATTCTG,-0.0318 ± 0.08
15,CGTAAAGA,-0.272 ± 0.013
16,CTGCTAGA,0.113 ± 0.039
17,CAGACCCA,-0.0557 ± 0.00088
18,GCGTCCTA,-0.189 ± 0.091
19,CCCGGCCG,-0.0994 ± 0.0049
20,GGGTACCC,0.0133 ± 0.13
21,CAAAGCCA,-0.257 ± 0.0098
22,CATACATC,-0.0287 ± 0.017
23,AATACTGG,-0.328 ± 0.014
24,CCCAGCAC,0.141 ± 0.038
25,AATTACAA,-0.0953 ± 0.12

row,Sequence,PBM E-score of 8-mer
1,AGATTTAT,-0.137 ± 0.015
2,AACATAAA,-0.134 ± 0.054
3,GGGGACGA,-0.151 ± 0.12
4,ACAACACG,0.251 ± 0.017
5,TTAGGCAA,0.0112 ± 0.066
6,CCATACGG,-0.15 ± 0.015
7,ACTAGAGG,-0.17 ± 0.027
8,ATCACTCA,0.0656 ± 0.025
9,GGGAGCGA,0.0751 ± 0.0085
10,GATCTAAA,-0.0647 ± 0.047
11,GATACTCA,-0.141 ± 0.022
12,GACTCGCC,-0.152 ± 0.047
13,CCGAGTGA,0.131 ± 0.02
14,GGGATGCA,-0.256 ± 0.041
15,ACAATCTA,-0.0816 ± 0.0069
16,GCTTAGCC,-0.151 ± 0.029
17,CATCTGGG,-0.104 ± 0.032
18,CGCACACC,0.325 ± 0.022
19,ACGGCTTA,0.0316 ± 0.018
20,ATCTACCG,-0.157 ± 0.067
21,TGACTGAA,0.0885 ± 0.055
22,AACTAGAG,-0.0673 ± 0.0029
